# According to PubChem BioAssay AID686970 (National Center for Advancing Translational Sciences (NCATS), 2013):
# Among all 360,000 compounds or so, about 6,000 (1.7%) were called active. Inconclusive means that the source gave no clear call. Such entries were picked first, then a sample of the others. The call rests on the fitted dose curve; in most records, active means well fitted cell-killing curve with a large enough effect; inconclusive means small, poorly fitted or top-dose-only effect, or effect the other way; inactive means flat fitted curve, though single readings scatter. No potency is given beside an inconclusive call; the fits are too rough.
# Test: qHTS for induction of synthetic lethality in tumor cells producing 2HG: qHTS for the HT-1080-NT fibrosarcoma cell line;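 further: NT is the 2HG producing partner of a matched IDH1 knockdown line; nearly all actives have a fitted effect of over 55% in size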;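 on activity, negative = less viability: 0% = DMSO-treated cells and -100% = media-only wells without cells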
# Conditions: HT-1080-NT fibrosarcoma viability, CellTiter-Glo ATP luminescence, 48 h; activity, negative = less viability: at 46.1 µM (top of the series) unless noted
# Method in brief: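 A 48-hour cytotoxicity screen used HT-1080-NT cells plated 2 hours before compound delivery. ATP-based CellTiter-Glo luminescence measured viability, normalized to DMSO and no-cell controls.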
# Potency means the concentration at half of the fitted maximal effect; tags describe the fitted curve by direction and shape.
SMILES,Potency,"activity, negative = less viability"
CCc1ccc(/C=C/C(=O)C2C(=O)c3ccccc3C2=O)cc1,"inconclusive [cytotoxic, single point]",
Cn1cccc1CC(=O)N/N=C\c1c2ccccc2cc2ccccc12,"inconclusive [cytotoxic, single point]",
C=CCNC(=O)C1CC2Cn3c(nc4cc5ccccc5cc43)C2N1C (stereo not given),,inactive: 11.9%
Cn1c(=O)c2cc(NC(=S)NC3CC3)ccc2n1Cc1cccc(C(F)(F)F)c1,,inactive: 21.7%
O=C(NCc1ccco1)c1cccc(-c2cncc3nccn23)c1,"inconclusive [rising, single point]",
CC(=O)c1c(C)[nH]c(C(=O)OCCCCN2C(=O)c3ccccc3C2=O)c1C,,inactive: -8.33%
O=C(C1=C[C@H](C2CCCCC2)C[C@H](OCc2ccc(CO)cc2)O1)N1CCN(Cc2ccccc2)CC1,"inconclusive [cytotoxic, single point]",
O=C(NNC(=O)c1cc2cc(Br)ccc2oc1=O)c1ccc(O)cc1O,"inconclusive [cytotoxic, partial curve, poor fit]",
CCCCn1c(N)c(N(CC(C)C)C(=O)c2cccc(-n3cnnn3)c2)c(=O)[nH]c1=O,,inactive: -6.49%
O=C(Nc1ccccc1Cl)c1ccccc1Oc1ccc(C(F)(F)F)cc1[N+](=O)[O-],"inconclusive [cytotoxic, single point]",
Cc1cc([N+](=O)[O-])ccc1NC(=O)CCC(=O)N1CCCCC1,,inactive: 8.57%
N#Cc1cccc(C(=O)C(=O)N2CCCN(Cc3ccc(F)cc3)CC2)c1,,inactive: 9.57%
O=C(CC(CC(=O)c1ccc(Br)cc1)c1cccnc1)c1ccc(Br)cc1,"inconclusive [rising, single point]",
C=C(C)C1CC=C(C)/C(=N/NC(=O)c2ccc(NC(=O)CC)cc2)C1 (stereo not given),,inactive: 18.6%
Cc1ccc(S(=O)(=O)NCc2ccccc2)cc1C(=O)NCC(C)(C)N1CCOCC1,,inactive: 3.11%
CCC(CC)c1nc2cc(OC)c(OC)cc2c(=O)o1,,inactive: 7.37%
CCc1nnc(NC(=O)CSc2nnc(CNc3ccc(Cl)cc3)o2)s1,,inactive: -11.6%
Clc1ccc2c(c1)c1cc(Cl)ccc1n2CN1CCOCC1,"inconclusive [cytotoxic, single point]",
CCOC(=O)CN1C(=O)C(Sc2n[nH]c(-c3cccc(C)c3)n2)CCc2ccccc21 (stereo not given),"inconclusive [cytotoxic, single point]",
CC1CN(c2ccc([N+](=O)[O-])c(NCCOc3ccc(Cl)cc3)c2)CC(C)N1 (stereo not given),"inconclusive [cytotoxic, single point]",
O=C(Nc1cccnc1)c1ccc(COc2cc(Cl)ccc2Cl)o1,"inconclusive [cytotoxic, partial curve]",
COc1cc(OC)nc(-n2ncc(Br)c(Br)c2=O)n1,active: 1.64 µM,
O=C(/C=C/c1cccs1)N1CCN(Cc2ccc3c(c2)OCO3)CC1,,inactive: 1.82%

SMILES,Potency,"activity, negative = less viability"
COc1cc2c(cc1OC)C(COc1ccccc1OC)N(C(=O)C(C)C)CC2 (stereo not given),,inactive: 9.21%
COc1ccc(C(=O)C2CCCN(Cc3c[nH]c4ccccc34)C2)c(OC)c1 (stereo not given),"inconclusive [cytotoxic, single point]",
CC(=O)Nc1ccc(NC(=O)C(C)OC(=O)/C=C/c2cn(-c3ccccc3)nc2-c2cccnc2)cc1 (stereo not given),"inconclusive [cytotoxic, single point]",
CC(NCc1ccc(-c2ccccc2)cc1)C(O)c1ccccc1 (stereo not given),"inconclusive [cytotoxic, single point]",
O=S(=O)(Nc1cccc(-c2ccc(N3CCCCCC3)nn2)c1)c1ccc(F)cc1,"inconclusive [cytotoxic, single point]",
O=C(NCCCn1ccnc1)c1ccc(NS(=O)(=O)c2ccc(Cl)c(Cl)c2)cc1,"inconclusive [cytotoxic, single point]",
CCN(CC)C(=O)Cn1cc(C(=O)C(=O)Nc2ccc3c(c2)OCCO3)c2ccccc21,"inconclusive [cytotoxic, partial curve]",
CCCCNC(=O)c1onc(CCl)c1C(=O)OC,"inconclusive [cytotoxic, single point]",
COc1cc(CNn2c(C)n[nH]c2=S)cc(Cl)c1OCc1ccccc1,"inconclusive [cytotoxic, single point]",
Nc1nc(=O)n(C2OC(CO)C(O)C2O)cc1F (stereo not given),"inconclusive [cytotoxic, full curve, poor fit]",
Oc1c(C(c2ccccn2)N2CCC(Cc3ccccc3)CC2)cc(Cl)c2cccnc12 (stereo not given),"inconclusive [cytotoxic, single point]",
CC(=O)Nc1cccc(-c2ccnc3c2CC(C)(C(=O)Nc2ccc4c(c2)OCO4)O3)c1 (stereo not given),"inconclusive [cytotoxic, full curve, poor fit]",
Cc1ccc(C)c(C(=O)COc2ccc(C)nc2[N+](=O)[O-])c1,"inconclusive [cytotoxic, single point]",
COC(=O)[C@@]12C[C@@H](CC(=O)NCCCN3CCCC3=O)C(=O)N(Cc3ccc4c(c3)OCO4)C1=CCC(C)(C)C2,,inactive: 3.89%
CCCCCc1c(-c2ccccc2OC)ncn1CCc1ccccc1OC,active: 16.4 µM,
Cc1ccc(S(=O)(=O)NC23CC4CC(CC(C4)C2)C3)cc1,,inactive: -1.43%
O=C(CCCCCN1C(=O)c2ccccc2C1=O)NCc1ccccn1,,inactive: 15.2%
N#CC(C(=O)Nc1cccc(Cl)c1)=C1Nc2ccccc2N1,"inconclusive [cytotoxic, single point]",
CC(=O)c1sc2nc(C)c3c(c2c1N)CCCC3,,inactive: -0.747%
CCOC(=O)C1=C[C@@H](C(C)(C)C)N(S(=O)(=O)c2ccc(C)cc2)[C@H]1c1ccc(C)cc1,"inconclusive [cytotoxic, single point]",
COCCN1C(=O)CCC1(C)C(=O)NC1CCCCC1 (stereo not given),"inconclusive [rising, single point]",
Cn1cnc([N+](=O)[O-])c1Sc1ncccc1N,,inactive: -26.2%
